According to PubChem BioAssay AID1159614 (National Center for Advancing Translational Sciences (NCATS), 2016):
Screen size: about 45,000 compounds; about 65 (0.1%) were called active. The call rests on the fitted dose curve; in most records, active means well fitted activation curve with a large enough effect; inconclusive means small, poorly fitted or top-dose-only effect; inactive means no such curve, though single readings can be large or run the other way. This is one part of the list.

Target: Galactocerebrosidase (Homo sapiens) (UniProt P54803)
Assay: A Novel Cell-Based Assay to Identify Small Molecules for B -Galactocerebrosidase; further: 0% is about no effect; nearly all actives have a fitted effect of over 65% in size
Settings: 145M-Twi-hGALC-G270D cells (Twitcher mouse brain line with human GALC G270D), HMU-beta-Gal fluorescence, 48 h; series mostly up to 57.5 µM; activation: at the top concentration
Outline: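 Live 145M-Twi cells (Twitcher mouse brain-derived, GALC-null) stably expressing human GALC-G270D, with a wild-type GALC line, were compound-treated. Residual GALC activity was then read as fluorescence from 0.1 mM final HMU-β-gal at pH 5.2; higher signal means activation.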

Chain of UniProt P54803 (P54803 whole entry, looked up): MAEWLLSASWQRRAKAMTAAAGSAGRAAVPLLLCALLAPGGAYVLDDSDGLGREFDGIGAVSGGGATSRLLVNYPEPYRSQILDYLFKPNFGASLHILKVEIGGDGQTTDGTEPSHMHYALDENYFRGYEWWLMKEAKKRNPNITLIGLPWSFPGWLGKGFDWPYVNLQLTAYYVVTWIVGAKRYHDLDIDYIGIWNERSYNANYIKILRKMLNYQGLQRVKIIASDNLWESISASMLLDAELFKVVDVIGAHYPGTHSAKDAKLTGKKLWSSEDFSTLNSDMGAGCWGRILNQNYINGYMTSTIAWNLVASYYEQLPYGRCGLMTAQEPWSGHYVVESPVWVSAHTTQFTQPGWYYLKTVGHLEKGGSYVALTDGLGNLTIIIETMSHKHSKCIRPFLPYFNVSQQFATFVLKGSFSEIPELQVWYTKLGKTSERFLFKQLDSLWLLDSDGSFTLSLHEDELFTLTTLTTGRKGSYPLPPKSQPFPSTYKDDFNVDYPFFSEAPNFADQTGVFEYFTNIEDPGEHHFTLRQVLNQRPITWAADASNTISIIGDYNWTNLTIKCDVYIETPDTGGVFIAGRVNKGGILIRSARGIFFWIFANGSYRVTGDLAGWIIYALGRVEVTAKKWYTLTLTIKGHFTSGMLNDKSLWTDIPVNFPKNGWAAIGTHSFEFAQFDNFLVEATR

activation, inactive:
Cc1ncc(CO)c2c1Oc1nc(-c3ccccc3)nc(SCC(=O)N3CCCCC3)c1C2 -13.4%, CS(=O)(=O)N1CCc2cc(C(=O)Nc3ccc(Cl)c(C(F)(F)F)c3)ccc21 -10.1%, Cc1nc(-c2ccc(OCC(C)C)c(C#N)c2)sc1C(=O)O -6.72%, CCOc1ccccc1NC(=O)Cn1c(=O)oc2cc(S(=O)(=O)NCc3ccccc3)ccc21 -0.228%, CN(C)c1ccc(CNC(=O)C2CCCN(S(=O)(=O)c3ccc4c(ccn4C)c3)C2)cc1 (configuration not stated) -20.7%, COc1ccc(C(=O)Nc2cc(-c3ccccc3)nn2-c2ccccc2)cc1 -11%, CCOC(=O)c1sc(NC(=O)C(C)Oc2ccc(OC)cc2)c(C(=O)OCC)c1C (configuration not stated) -10.9%, O=C(COCc1cc(-c2cccs2)on1)Nc1cc(Cl)ccc1O -17.9%, COc1ccc(C)cc1NC(=O)CN1C(=O)COc2ccc(S(=O)(=O)N3CCOCC3)cc21 -2.99%, Cc1ccc(NC(=O)COc2ccc(-c3nn(C)c(=O)c4ccccc34)cc2)cc1 -14.1%, CCOC(=O)c1cccc(NC(=O)c2cc3cc4cc(OC)ccc4nc3s2)c1 -25.3%, CC1=Nc2cc(C(=O)NCc3ccc(C)cc3)ccc2Sc2ccc(Cl)cc21 -5.87%, CCN1CCC(N(Cc2cccc(OC)c2)C(=O)Nc2cccc(C)c2C)CC1 8.6%, COc1ccc(C2N=C(N)Nc3nc4ccccc4n32)c(OC)c1OC (configuration not stated) -10.1%, COC(=O)C1=C(C)NC(=O)C1(NC(=O)c1ccc(Cl)cc1)C(F)(F)F (configuration not stated) -8.4%, Cc1cc(=O)c2cc(C(=O)Nc3ccc(F)cc3)ccc2[nH]1 -13.2%, CCOC(=O)N1CCN(S(=O)(=O)N2CCCC(C(=O)NCc3cc(Br)ccc3OC)C2)CC1 (configuration not stated) -9.19%, CCN1CCc2nc3sc(C(=O)Nc4ccccc4OC(F)(F)F)c(N)c3cc2C1 -6.57%, Cc1cc(C)c(NC(=O)CSC2=Nc3ccccc3C3=NC(CC(=O)NCc4cccs4)C(=O)N23)c(C)c1 (configuration not stated) -13.7%, COc1cccc(Nc2nc3c(S(=O)(=O)c4cc(C)ccc4C)nnn3c3ccsc23)c1 0.851%, Cc1ccc(NC(=O)N2CCN(Cc3nc4ccc(C)cc4o3)CC2)cc1 -18.7%, O=C(CN1c2ccc(Br)cc2-c2ccccc2S1(=O)=O)N1CCCCC1 -12.8%, CC(=O)Nc1c(C)nn(-c2ccccc2)c1N1CCC(C(=O)Nc2ccccc2C(F)(F)F)CC1 -8.96%, O=C(Cn1c(-c2cccs2)cc2cc(F)ccc21)N1CCN(c2ccccc2)CC1 -6.59%, COc1ccc(CNc2oc(/C=C/c3cc(OC)c(OC)c(OC)c3)nc2C#N)cc1 -9.69%, COc1ccc(C)cc1-n1nnc(S(=O)(=O)c2ccc(C)cc2)c1C -0.377%, Cc1cccn2c(=O)c(C(=O)NC(C)c3ccccc3)c(O)nc12 (configuration not stated) -18.8%, CCOc1ccc(Nc2oc(/C=C/c3ccc(OC)c(OC)c3)nc2C#N)cc1 -1.51%, Cc1ccc(N(CC(=O)NCCSc2ccccc2)S(=O)(=O)c2ccc(F)cc2)cc1 -2.23%, CC(=O)c1ccc(NC(=O)c2cc3sccc3n2Cc2ccc(Cl)cc2)cc1 -37.1%, O=C(COc1ccc(Cl)cc1)NCC(c1ccco1)S(=O)(=O)c1ccc(F)cc1 (configuration not stated) -12.4%, CCOCCCNC(=O)C(=O)Nc1c2c(nn1-c1ccccc1)CSC2 -7.3%, O=C(c1ccccc1Cl)N1CCC(c2nc3ccccc3s2)CC1 -19.3%, CCN(CC)S(=O)(=O)c1ccc(C(=O)NC2CC(=O)N(c3ccc(OC)c(OC)c3)C2)cc1 (configuration not stated) -5.07%, CN1CCCCC1CCN1c2ccccc2Sc2ccc(S(C)=O)cc21 (configuration not stated) -14.4%, COCCCn1c(SCC(=O)Nc2ccc(F)cc2)nc2c(sc3ccccc32)c1=O -14.4%, Cc1cccc(NC(=O)C2CCCN(S(=O)(=O)c3ccc4c(c3)CCCC(=O)N4)C2)c1 (configuration not stated) -2.77%, COc1ccc(Cl)cc1NC(=O)Cn1nc(C(F)(F)F)c2c1CCCC2 -13.6%, Cc1ccc(CNS(=O)(=O)c2ccc3[nH]c4c(c3c2)CCCCC4)cc1 -10.2%, COCCCn1c(=O)c2sccc2n2c(CCCC(=O)Nc3cccc(OC)c3)nnc12 -2.73%, COc1ccc(CNC(=O)c2cc3cccc4c3n2CC(C)S4)cc1OC (configuration not stated) -6.35%, CC(=O)N1CCCC1c1nc2ccccc2n1Cc1ccc(F)cc1 (configuration not stated) -7.69%, O=C(c1ccc2c(c1)N(Cc1c(F)cccc1Cl)C(=O)c1ccccc1S2)N1CCCC1 -11.7%, CCc1ccc(NC(=O)c2ccc(Cn3nc(N4CCN(c5ccccc5)CC4)ccc3=O)o2)cc1 -8.15%, Cc1ccc(Cl)cc1-n1ncc2c(Nc3ccc4c(c3)OCCO4)ncnc21 -12.6%, COc1cc(NC(=O)CN2C(=O)COc3ccc(S(=O)(=O)NC4CCCC4)cc32)cc(OC)c1 -7.94%, CCCn1c2ccccc2c2cnn(CC(=O)NCCCN(CC)c3ccccc3)c(=O)c21 -23.8%, CC1CCc2c(sc3nnn(CC(=O)Nc4c(C(C)C)cccc4C(C)C)c(=O)c23)C1 (configuration not stated) -14.6%, CCC(C)c1ccccc1OCC(=O)Nc1ccc(S(=O)(=O)Nc2cc(C)on2)cc1 (configuration not stated) -9.82%, COc1cc(NS(=O)(=O)c2c(C(=O)N3CCCCC3)c(C)n(C)c2C)cc(OC)c1OC -13.8%, COc1ccc(-c2cc3ncc(C(=O)c4cc([N+](=O)[O-])ccc4O)cn3n2)cc1 6.78%, O=C(Nc1cccc2cccnc12)c1ccc(-c2cccc(Cl)c2)o1 -6.85%, COc1cccc(NC(=O)CCCn2c(=O)c3cccn3c3cccnc32)c1 -27.3%, Cc1ccc(CCNC(=O)c2ccc3c(c2)N(Cc2ccccc2F)C(=O)c2ccccc2S3=O)cc1 (configuration not stated) -11.7%, Cn1nnnc1SCCCNCc1cc(Br)ccc1OCc1ccccc1F -17.3%, CCOC(=O)c1cc(-c2ccccc2)n(CC(=O)Nc2ccccc2OCC)c1C -13.9%, O=C(Nc1sc2c(c1C(=O)NCC1CCCO1)CCC2)c1cc(=O)c2cc(Cl)ccc2o1 (configuration not stated) 0.361%, Fc1ccc(-c2cc(-c3ccccc3)c3c(n2)-c2ccccc2OC3)cc1 -9.68%, COc1ccc(-c2nc(CCNC(=O)c3ccccc3)cs2)cc1OC -15.6%, Cc1cccc(C)c1NC(=O)CCCn1c(=O)c2cccn2c2ccccc21 -13.9%, O=C1C(=O)N(C2CCNCC2)CCN1Cc1ccccc1 -24.2%, CCOC(=O)c1c(S(=O)(=O)NCC(=O)Nc2ccc(C(C)=O)cc2)c(C)n(C)c1C 4.66%, Fc1ccc(-c2csc(=Nc3cccc(C(F)(F)F)c3)n2Cc2ccc3c(c2)OCO3)cc1 -17.8%, O=C(CN1C(=O)COc2ccc(S(=O)(=O)NC3CCCC3)cc21)NCc1ccccc1Cl -5.54%, Cc1ccc(Cl)cc1NC(=O)CCn1cnc2ccccc2c1=O -14.2%, CCOC(=O)c1ccc(NC(=O)C2=C(C)C(=O)OC23CCN(C(C)=O)CC3)cc1 -1.53%, CCOC(=O)c1cccc(NC(=O)c2cc(C)nc3c2c(C)nn3-c2ccc(C)cc2)c1 -10%, COc1cc(Nc2nc3ccc(Cl)cc3nc2-n2nc(C)cc2C)cc(OC)c1 -17.2%, Cc1cc(C)cc(NC(=O)C(=O)NCC(c2cccnc2)N2CCOCC2)c1 (configuration not stated) -6.54%, Cn1ncc2c(Nc3cccc(C#N)c3)ncnc21 8.39%, CCc1cccc(C)c1NC(=O)CSc1n[nH]c(-c2ccccc2)n1 -11.1%, CCC(C(=O)NCCC(C)C)N(C(=O)Cn1nnc(-c2ccc(C)cc2)n1)c1cccc(O)c1 (configuration not stated) -4.38%, Cc1ccc(NC(=O)Cn2c(=O)n(CCC(C)C)c(=O)c3cccnc32)cc1C -14.2%, CCN(CCO)CCCC(C)Nc1ccnc2cc(Cl)ccc12 (configuration not stated) -11.4% [at 5.77 µM], COc1ccc(Cl)cc1NC(=O)Cn1c(=O)n(Cc2ccc(F)cc2)c(=O)c2cccnc21 -6.16%, Cc1nc(Nc2ncc(C(=O)Nc3c(C)cccc3Cl)s2)cc(N2CCN(CCO)CC2)n1 -18.1%, Cc1ccccc1OCCSc1nnc(-c2cccs2)o1 8.43%, CCOc1ccc(NC(=O)C(C)n2c(=O)cc(-c3ccccc3)c3c(C)nn(C)c32)cc1 (configuration not stated) -13.5%, CC1CN(C(=O)N2CCC(C(=O)NCc3ccccc3F)CC2)c2cc(Cl)ccc2O1 (configuration not stated) -8.53%, COc1ccccc1N1CCN(C(=O)Cn2c(=O)nc(-c3ccccc3)c3ccccc32)CC1 -10.2%, Cc1ccc2nc(-c3ccc(C)s3)c(Nc3ccc4c(c3)OCCO4)n2c1 -4.7%, COc1ccccc1-c1nn(CCC(=O)Nc2ccccc2)c2nc(C)cc(C)c12 -13.9%, COc1ccc(CCNC(=O)CN(c2ccccc2)S(=O)(=O)N(C)C)cc1 -17%, O=C(Nc1ccc(F)c(F)c1)C(c1ccccc1)N1Cc2ccccc2C1=O (configuration not stated) -10.6%, COc1ccccc1C(=O)Nc1ccc(-c2cc(C(F)(F)F)nn2-c2ccccc2)cc1 -5.34%, CCOC(=O)c1c(C)[nH]c(C)c1S(=O)(=O)N1CCCC(C(=O)N2CCN(c3cccc(Cl)c3)CC2)C1 (configuration not stated) -19.5%, Cc1ccc(C(=O)N2CCN(CCc3ccncc3)CC2)cc1 3%, CCOc1ccccc1NC(=O)Cn1c(=O)n(CCCC(=O)NCc2ccc(C)cc2)c(=O)c2ccccc21 -13.6%, Cc1cccc2sc(N(Cc3cccnc3)C(=O)c3ccco3)nc12 -10.2%, COc1ccccc1OCC(=O)NCCS(=O)(=O)N1CCN(c2ccccc2OC)CC1 -5.15%, Cc1nn(C(C)C(=O)NCc2ccco2)c(=O)c2nn(-c3ccccc3)c(C)c12 (configuration not stated) -16.7%, Cc1ccc2[nH]cc(C(c3ccccc3)c3ccc(Cl)s3)c2c1 (configuration not stated) -23.2%, CCN(CC)CCNC(=O)c1cc2c(-c3cccc(OC)c3)nn(C)c2s1 -9.49%, CN1C(=O)c2ccccc2Sc2ccc(NC(=O)N3CCN(c4ccc(F)cc4)CC3)cc21 -15.6%, COc1ccc(NC(=O)C(NS(=O)(=O)c2cccc3nsnc23)C(C)C)cc1OC (configuration not stated) -7.1%, COc1ccc(-c2nc(S(=O)(=O)c3ccccc3)c(N3CCC(C)CC3)o2)cc1 -18.8%, COc1ccc(C(=O)NCCc2csc(-c3ccc(Cl)cc3)n2)c(OC)c1 -7.21%
